Consider 43 molecules from ChEMBL document CHEMBL4888484, “Replenishing the malaria drug discovery pipeline: Screening and hit evaluation of the MMV Hit Generation Library 1 (HGL1) against asexual blood stage Plasmodium falciparum ,using a nano luciferase reporter read-out” (2022).

The whole screen tested about 150,000 compounds, of which about 540 (0.36%) showed an effect of 50% or more. The list shows a part of the results.

This experiment relates to Plasmodium falciparum. The experiment in a line: Primary screen in NF54 nanoGlo assay, in single point, at 2uM, 72h; a lower Z score goes with more inhibition. The format is functional, Erythrocyte. As to conditions: timepoint 72 hour.
As to `Nc1cc(C(F)(F)F)ccc1NCCCC(=O)O`, the “% Inhibition” value is -3% and the Z score is given as 0.48.
On the same counts, the results for `Oc1cc(CN[C@H]2CC[C@H](O)CC2)nc2c(F)cccc12` are 5% and -0.73.
In the case of `CCNC(=O)c1cc(NC(=O)N2CCC(C(C)C)CC2)c(C)s1`, the “% Inhibition” value was -4% and the Z score is given as 0.55.
Consider `O=C(Nc1ccccn1)[C@H]1CCCN(S(=O)(=O)c2c(F)cccc2F)C1`, for which the “% Inhibition” value was -12% and the Z score turned out to be 2.17.
Take `CC(C)[C@@H](c1ccccc1)N(C(=O)c1cocn1)C(C)C`: the “% Inhibition” value was -9% and the Z score is on record as 1.72.
On the same counts, the results for `O=C(NC1CCCCCC1)[C@H]1CC[C@H](Cn2cnnn2)CC1` are -11% and 1.61.
Consider `Cc1ccc2nc(NCc3ccccc3Cl)c(-c3noc(C)n3)cc2c1`, for which the “% Inhibition” value was 6% and the Z score is on record as -0.77.
On the same counts, the results for `CCc1[nH]nc(C(=O)N(CC)Cc2nc(C(C)C)no2)c1C` are -13% and 1.28.
Regarding `Cc1nonc1C(=O)N(C)CCCNC(=O)C1CCC1`, the “% Inhibition” value worked out at 1% and the Z score was -0.09.
On the same counts, the results for `Cn1nc(CN(Cc2ccco2)S(=O)(=O)c2ccc3c(c2)CCO3)cc1C1CC1` are -10% and 1.95.
On the same counts, the results for `COc1cc(OC)n(CC(=O)NCc2ccccc2C)n1` are -1% and 0.17.
On the same counts, the results for `CS(=O)(=O)N1CCC[C@H](Oc2ccncc2)C1` are 11% and -1.52.
Regarding `COCCCN(CCOC)C(=O)Nc1ccc2oc(C3CC3)nc2c1`, the “% Inhibition” value is given as -12% and the Z score is on record as 1.58.
On the same counts, the results for `O=C(O)CCc1nc2ccccc2n1-c1ccc(C(F)(F)F)nc1` are -12% and 1.69.
`COc1ccc(CN2CCN(Cc3cc(C(C)C)[nH]n3)C[C@@H]2CCO)c(F)c1`: the “% Inhibition” value is listed as -4% and the Z score came out at 0.41.
On the same counts, the results for `N#Cc1cnn(-c2ccc(NC(=O)c3ccc(Oc4ccccc4)cc3)cc2)c1N` are -6% and 0.77.
In the case of `NC(=O)c1ccc(NC(Cc2ccccn2)[C@H]2C[C@H](O)C2)nc1` (stereo partly specified), the “% Inhibition” value is reported as -18% and the Z score is reported as 1.67.
On to `COc1ccc(CN2CCC(c3ccc4cccnc4n3)CC2)cn1`, for which the “% Inhibition” value was -6% and the Z score is recorded as 0.9.
On the same counts, the results for `c1nc(N2CCC(COc3cc4c(nn3)CCC4)CC2)c2nc[nH]c2n1` are -18% and 2.07.
For `Cc1cc(CNC(=O)c2cnc3n2CCCC3)ccc1Cl`, the “% Inhibition” value is given as 1% and the Z score is listed as -0.13.
On the same counts, the results for `Cc1cc2cc(CNC(=O)CCC3CCCC3)ccc2n1C` are 0% and 0.07.
Regarding `Cc1ccc(-c2csc(N3CCN(Cc4ccc5c(c4)OCO5)CC3)n2)cc1`, the “% Inhibition” value stood at 4% and the Z score is -0.5.
Take `Cn1ccc(NC(=O)CN2C[C@]3(C)C[C@H]2CC(C)(C)C3)n1`: the “% Inhibition” value was found to be 7% and the Z score is recorded as -0.98.
On the same counts, the results for `Cc1ccc(F)c(CN2CCc3nc(N4CCCC4)nc(Oc4ccccc4C)c3C2)c1` are -10% and 1.34.
On the same counts, the results for `COc1ccc(F)c(NCc2csc(N(C(C)=O)C3CC3)n2)c1` are 3% and -0.36.
On the same counts, the results for `O=C(O)CC[C@H]1CCCN(C(=O)c2coc3ccccc23)C1` are 2% and -0.28.
As to `CCN(Cc1nc2ccccc2c(=O)[nH]1)C(=O)NC1CCCCCC1`, the “% Inhibition” value was -40% and the Z score was 4.67.
On the same counts, the results for `CN(C(=O)c1cc2n(n1)CCCC2)[C@H](c1ccccc1)C(F)(F)F` are 4% and -0.83.
With `COc1ccc(-c2cn3cc(C)nc3n2C)cc1`, the “% Inhibition” value is 42% and the Z score is listed as -5.45.
On the same counts, the results for `C=CCn1c(C(=O)N2CCC(C)CC2)cc2c(OCc3cccc(C)c3)cccc21` are -10% and 1.74.
On the same counts, the results for `Cc1ccc(CN2C(=O)CN(S(=O)(=O)c3ccccc3)C[C@@]2(C)C(=O)NCCC(C)C)cc1` are -7% and 0.88.
With `CCc1nnc([C@@H]2CCCN2S(=O)(=O)c2cccs2)[nH]1`, the “% Inhibition” value is given as -11% and the Z score worked out at 1.39.
On the same counts, the results for `Cc1ccc2nc(-c3ccc(N4C(=O)C[C@H](N5CCC(C)CC5)C4=O)cc3)sc2c1` are -8% and 1.52.
On to `CC1(C)C[C@H](O)c2cccc(NCC(=O)N3CCNC3=O)c2O1`, for which the “% Inhibition” value is given as -2% and the Z score is recorded as 0.41.
On the same counts, the results for `CCOc1cc(C(=O)NC[C@@H]2C[C@H]2c2cccnc2)n[nH]1` are 2% and -0.29.
As for `CC[C@H](NC1CCN(c2ncnc3[nH]cnc23)CC1)c1ccnn1C`, the “% Inhibition” value is -11% and the Z score is 1.67.
On to `CC(NC1CCCC2(CC2)C1)c1nccn1-c1ccccc1` (stereo unspecified), for which the “% Inhibition” value is -9% and the Z score turned out to be 1.02.
Consider `CCc1cnc(C)nc1-c1ccc(C(=O)N(C)CCc2noc(C)n2)cc1`, for which the “% Inhibition” value is listed as -8% and the Z score was found to be 0.78.
Consider `CN1CCC(CN(CCc2ccccc2)C(=O)CN2CCCCC2)CC1`, for which the “% Inhibition” value was -15% and the Z score is reported as 1.8.
Consider `CC(C)c1ncsc1C(=O)N1CC(C)(C)[C@@H]1C1CC1`, for which the “% Inhibition” value turned out to be 3% and the Z score is recorded as -0.29.
On the same counts, the results for `CCc1nnc(-c2cccn2CC(=O)Nc2ccccc2CC)o1` are -17% and 1.72.
With `CNCCOc1ccc(Cl)c(Cl)c1`, the “% Inhibition” value worked out at 1% and the Z score was -0.09.
On the same counts, the results for `CCCNc1ncc(CN2C[C@H](OC)[C@@H](O)C2)cn1` are -20% and 2.16.

In general, % Inhibition refers to the relative decrease from the control value, in per cent.
